These results are taken from article PMC6212790.

This is one part of the list. At the low end of the ranking, values are background and their order means little.

The test has as its target T1, GST-Rok-C97-191 (UniProt O34857).
T1 sequence: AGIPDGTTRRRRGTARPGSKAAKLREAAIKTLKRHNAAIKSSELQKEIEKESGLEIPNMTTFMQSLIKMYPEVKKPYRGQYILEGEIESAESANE
In words: protein binding microarray.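 Further: rank score from −0.5 (least bound) to 0.5 (best bound).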 The conditions noted are these: Rok is a gene silencer of Bacillus subtilis; high values mean tight binding; most listed sequences are background and not binding sites; double strand, one strand shown.
As for CGTGTCCC, the binding signal is -0.238 E-score. For CTTCTGAC, the binding signal is -0.0313 E-score. The figure for GACAGGTC is -0.216 E-score; for AGCCAATA it is -0.0503 E-score. In the case of TCAACACA it was -0.0365 E-score; in that of AACACCGT, 0.102 E-score; in that of CTTATAAC, 0.115 E-score. In the case of AGAAAAAG it was 0.0316 E-score; in that of CCTCGTCA, -0.257 E-score. Sequence AAATAACC had a binding signal of 0.131 E-score.

For the sequence AACCTTGA, the binding signal was 0.00629 E-score. As for CCGGTACG, the binding signal is -0.0992 E-score. The figure for CGATCGCC is -0.0138 E-score.

With CAGTCCCG, the binding signal is -0.167 E-score. With AAGAATTA, the binding signal was found to be 0.135 E-score. In the case of TAAGTGAA it was 0.148 E-score; in that of CGGGGAGA, -0.275 E-score. In the case of CCCTGATC it was -0.168 E-score; in that of ATCCAATA, 0.111 E-score; in that of CTGTGCCC, -0.153 E-score. In turn, CAATTTAG showed a binding signal of 0.232 E-score. Regarding ATCAGAGA, the binding signal is -0.00791 E-score. In turn, ACTCCGGC returned a binding signal of 0.0565 E-score.

TCCGTCCA: the binding signal is -0.19 E-score. In the case of CCCCAAGG it was -0.269 E-score; in that of AAAATACT, 0.371 E-score. In the case of CCGGGGAA it was -0.0535 E-score; in that of CCAATTTC, 0.133 E-score.

For the sequence TAGTGCGA, the binding signal came to 0.0718 E-score.

On to ACCCTCTA, for which the binding signal is -0.122 E-score. In the case of ATACTCAG it was 0.0439 E-score; in that of CAGATGAC, -0.0635 E-score. The figure for CCAGCATC is 0.0564 E-score; for TAGTGGCA it is 0.104 E-score.

GTGCTAAC: the binding signal was determined as 0.00834 E-score. Turning to GATTCCGA, the binding signal came to 0.0368 E-score. On to GATTGGTA, for which the binding signal came to 0.202 E-score. Sequence AAATCCAA had a binding signal of 0.127 E-score. Sequence CCAGCCGA showed a binding signal of 0.0252 E-score.

For the sequence CGACTAAG, the binding signal is -0.112 E-score. In the case of CACGGCAC it was -0.0947 E-score; in that of ATAAGTTC, 0.228 E-score; in that of CGCTATCA, 0.0552 E-score. On to ACCTGTGC, for which the binding signal is -0.159 E-score. In the case of CCCATATA it was 0.107 E-score; in that of AGTGTTGG, -0.0462 E-score.

For the sequence GACTCGGC, the binding signal is -0.2 E-score. For the sequence AAGTACTG, the binding signal came to 0.145 E-score. For the sequence CCGGAAGG, the binding signal is -0.206 E-score.

As to AGTGGCAT, the binding signal is -0.0354 E-score. In turn, ACATTGAC came in with a binding signal of 0.0683 E-score. In the case of CAACGAAA it was 0.00998 E-score; in that of GCCTGAGA, -0.17 E-score; in that of AATATCAC, 0.297 E-score. As for AATGGGAG, the binding signal is -0.0166 E-score.

For ATTACAAT, the binding signal is 0.262 E-score.

On to AGAAACCT, for which the binding signal came out at 0.236 E-score. In the case of CTTTACCC it was -0.188 E-score; in that of GAGCATCC, -0.22 E-score; in that of CGATGAAA, -0.165 E-score. In the case of GCGCTAGC it was 0.00413 E-score. In the case of ATAATCCC, the binding signal was -0.0844 E-score. The figure for ACGCCGTC is 0.0323 E-score. Take CGGCTCAC: the binding signal was -0.277 E-score.

Regarding ACAGTGAC, the binding signal stood at 0.0755 E-score. CTAGCGGA had a binding signal of 0.0679 E-score. The figure for AAGCGTGT is -0.00149 E-score; for AGCGGTCC it is -0.154 E-score. Consider CCGGGACG, for which the binding signal was -0.279 E-score. The figure for CCACTGAA is -0.0731 E-score; for ATAAACTG it is 0.199 E-score; for AGCGCTTC it is -0.0803 E-score.

The sequence AATCTAAA registered a binding signal of 0.167 E-score. The figure for CAGCTAAC is -0.000593 E-score.

As to CTCAGCCC, the binding signal was -0.142 E-score.

Regarding GAATAGGC, the binding signal is -0.222 E-score. AACAGGAC had a binding signal of 0.0173 E-score. Sequence ATGTAAAT registered a binding signal of 0.373 E-score. In the case of CGAAAGAC it was -0.0876 E-score; in that of CCCGGTCG, -0.238 E-score.

In the case of CGTTTGAA, the binding signal is -0.0956 E-score. TATAGATA came in with a binding signal of 0.368 E-score. The figure for GCAAGGTA is 0.106 E-score. In the case of CATTATAA it was 0.122 E-score; in that of ACGCCATA, -0.0598 E-score; in that of ATGAACTG, 0.088 E-score. For AGACCAGA, the binding signal was -0.278 E-score.

With AGAACGAA, the binding signal was 0.0755 E-score. As to CCGTGGAA, the binding signal was -0.103 E-score.

The sequence GCTAATTA had a binding signal of 0.289 E-score. Turning to ATCGACAA, the binding signal was 0.155 E-score. Turning to GATTCACC, the binding signal was -0.164 E-score.

For the sequence CCCGTACG, the binding signal is -0.0278 E-score. Take GCATTCCA: the binding signal is -0.0351 E-score. The figure for GCCGCCAA is -0.337 E-score; for GATGAAAA it is 0.105 E-score. In the case of ATTATGGC it was 0.162 E-score; in that of AGTCTGAC, -0.124 E-score.

Take CGTTGTCC: the binding signal is -0.0612 E-score. Consider ATTTGGTC, for which the binding signal is 0.0459 E-score. CCGGTTAA gave a binding signal of 0.0256 E-score. Consider GGCGTGAA, for which the binding signal is -0.14 E-score. The figure for ACAGTAGC is 0.278 E-score. The figure for GACATAGA is 0.134 E-score; for TGAGTGAA it is -0.121 E-score. Regarding CTTTCCGA, the binding signal is -0.184 E-score. The figure for TCGTCGAA is 0.0573 E-score. Take CAAACCTC: the binding signal is 0.00823 E-score. Regarding GGCTCGAC, the binding signal is -0.166 E-score.

CTCCGAAG: the binding signal is 0.00969 E-score. The figure for ATTGCATC is 0.0538 E-score; for ATCCACAA it is 0.026 E-score.

ACATCTTA showed a binding signal of 0.121 E-score.

Regarding CCGTGACA, the binding signal was -0.0857 E-score. As for GAGGTTTA, the binding signal is -0.0543 E-score. In the case of ACTTCACT it was -0.0994 E-score; in that of GCTCAACC, -0.056 E-score.

The sequence ACTCCATG had a binding signal of 0.138 E-score. As for GACCTGAC, the binding signal is -0.279 E-score.

Regarding AAACTGTC, the binding signal is -0.0468 E-score.

In turn, GCTACTGA had a binding signal of 0.131 E-score. The figure for GTCGCGCA is -0.0822 E-score.

Take CGCCTGTC: the binding signal was -0.174 E-score.

For TGAAGAAA, the binding signal is -0.00429 E-score. Regarding ATTTATGA, the binding signal is 0.126 E-score. AGTTCGCA: the binding signal is -0.0687 E-score.

As to ACTAAGGA, the binding signal was determined as 0.268 E-score. The figure for AGCCGGAG is -0.225 E-score; for GGCACACA it is -0.224 E-score.

Take CGCTCTTC: the binding signal is -0.264 E-score.

With ATTGGAGG, the binding signal is -0.105 E-score. The sequence TATCCAAA yielded a binding signal of 0.207 E-score. The figure for CTATAGTC is 0.122 E-score. In the case of CCGAGCAC, the binding signal is -0.0285 E-score. The figure for ACAACCAA is 0.0769 E-score. As for CCCCACGG, the binding signal was -0.457 E-score.

In turn, TTAGAAAA showed a binding signal of 0.263 E-score.

For the sequence ATTTGTTC, the binding signal was 0.104 E-score. Consider AACAGAAT, for which the binding signal was -0.0178 E-score.

On to AATGCTAG, for which the binding signal is 0.11 E-score.

For the sequence CGCGGCAG, the binding signal was -0.144 E-score. In the case of AACTTAAT it was 0.148 E-score; in that of CACCTCTG, -0.0739 E-score.

AATTATAA returned a binding signal of 0.274 E-score.

ACCGGCAT yielded a binding signal of 0.041 E-score.

On to ATTACGTA, for which the binding signal amounted to 0.309 E-score. Consider AAATGGCC, for which the binding signal worked out at 0.073 E-score. With ACTGATGC, the binding signal was -0.132 E-score. In the case of CTAACTAG it was 0.268 E-score. The figure for TATAGCGA is 0.232 E-score; for CAAGATCC it is -0.0974 E-score. Regarding AGGCTGGC, the binding signal is -0.369 E-score. In the case of AAGCCTTC it was -0.354 E-score; in that of GCAACGTA, -0.0118 E-score. In the case of ACCTCCAT, the binding signal was determined as 0.0276 E-score. In the case of CGGACGCA it was -0.218 E-score; in that of CGCATAGC, 0.0397 E-score; in that of GCTCTGAA, -0.167 E-score.

Regarding AGCCGGTC, the binding signal is -0.116 E-score. In the case of GCACACTA it was -0.00608 E-score. In the case of ACACGAGC, the binding signal is -0.122 E-score.

With CATGATCA, the binding signal worked out at 0.0418 E-score. For the sequence ACATGACT, the binding signal is -0.0153 E-score. The figure for GGTTGTTA is 0.191 E-score; for ACACAGCA it is 0.194 E-score; for GTAAGATA it is 0.229 E-score.

The sequence CCTAGTAA showed a binding signal of 0.145 E-score.

Turning to ACCTAAGA, the binding signal was -0.07 E-score. In the case of CTCTCAAA, the binding signal is -0.0377 E-score. The figure for ATGGTGCA is 0.0667 E-score; for ATATGCAA it is 0.28 E-score; for GATCCCCA it is -0.243 E-score.
